Measured values published in EPA's CvTdb concentration-time database.
This continues a long series; more values of the same kind are listed elsewhere.

Tests used:
Rat [1] = assay: concentration in brain after dosing; details: 10 min; dosed: 2-Methyltetrahydrofuran; 10 mg/kg; iv; Male; F344
Rat [2] = assay: concentration in plasma after dosing; details: 1 h; dosed: 2-Methyltetrahydrofuran; 10 mg/kg; iv; Male; F344
Rat [3] = assay: concentration in plasma after dosing; details: 1.5 h; dosed: 2-Methyltetrahydrofuran; 10 mg/kg; iv; Female; F344
Rat [4] = assay: concentration in brain after dosing; details: 0.5 h; dosed: 2-Methyltetrahydrofuran; 30 mg/kg; oral; Female; F344
Rat [5] = assay: concentration in plasma after dosing; details: 10 min; dosed: 2-Methyltetrahydrofuran; 30 mg/kg; oral; Female; F344
Rat [6] = assay: concentration in brain after dosing; details: 1.5 h; dosed: 2-Methyltetrahydrofuran; 10 mg/kg; oral; Male; F344
Rat [7] = assay: concentration in plasma after dosing; details: 4 h; dosed: 2-Methyltetrahydrofuran; 100 mg/kg; oral; Female; Harlan Sprague Dawley
Rat [8] = assay: concentration in plasma after dosing; details: 4 min; dosed: 2-Methyltetrahydrofuran; 30 mg/kg; oral; Male; F344
Rat [9] = assay: concentration in brain after dosing; details: 12 h; dosed: 2-Methyltetrahydrofuran; 400 mg/kg; oral; Female; F344
Rat [10] = assay: concentration in plasma after dosing; details: 5 min; dosed: 2-Methyltetrahydrofuran; 10 mg/kg; iv; Male; F344
Rat [11] = assay: concentration in brain after dosing; details: 10 min; dosed: 2-Methyltetrahydrofuran; 400 mg/kg; oral; Female; Harlan Sprague Dawley
Rat [12] = assay: concentration in plasma after dosing; details: 2 h; dosed: 2-Methyltetrahydrofuran; 30 mg/kg; oral; Male; F344
Rat [13] = assay: concentration in brain after dosing; details: 1.5 h; dosed: 2-Methyltetrahydrofuran; 30 mg/kg; oral; Male; F344
Rat [14] = assay: concentration in plasma after dosing; details: 12 h; dosed: 2-Methyltetrahydrofuran; 400 mg/kg; oral; Female; F344
Rat [15] = assay: concentration in plasma after dosing; details: 20 min; dosed: 2-Methyltetrahydrofuran; 100 mg/kg; oral; Male; Harlan Sprague Dawley
Rat [16] = assay: concentration in brain after dosing; details: 20 min; dosed: 2-Methyltetrahydrofuran; 10 mg/kg; iv; Female; F344
Rat [17] = assay: concentration in brain after dosing; details: 4 min; dosed: 2-Methyltetrahydrofuran; 30 mg/kg; oral; Female; F344
Rat [18] = assay: concentration in brain after dosing; details: 0.75 h; dosed: 2-Methyltetrahydrofuran; 400 mg/kg; oral; Female; Harlan Sprague Dawley
Rat [19] = assay: concentration in plasma after dosing; details: 2 min; dosed: Bromochloroacetic acid; 10 mg/kg; iv; Male; F344
Rat [20] = assay: concentration in plasma after dosing; details: 40 min; dosed: Bromochloroacetic acid; 10 mg/kg; iv; Male; F344
Rat [21] = assay: concentration in plasma after dosing; details: 5 min; dosed: Bromochloroacetic acid; 10 mg/kg; iv; Male; F344
Rat [22] = assay: concentration in plasma after dosing; details: 0.75 h; dosed: Bromochloroacetic acid; 100 mg/kg; oral; Female; F344
Rat [23] = assay: concentration in plasma after dosing; details: dosed: Bromochloroacetic acid, 40 mg/kg, oral, Female, F344
Rat [24] = assay: concentration in plasma after dosing; details: 6 h; dosed: Fluorotelomer alcohol 8+2; 80 mg/kg; oral; Female; Harlan Sprague Dawley
Rat [25] = assay: concentration in plasma after dosing; details: dosed: Fluorotelomer alcohol 8+2, 40 mg/kg, oral, Female, Harlan Sprague Dawley
Rat [26] = assay: concentration in plasma after dosing; details: dosed: Formamide, 36 mg/kg, oral, Female, Harlan Sprague Dawley
Rat [27] = assay: concentration in plasma after dosing; details: 2 h; dosed: Formamide; 30 mg/kg; iv; Female; F344
Rat [28] = assay: concentration in plasma after dosing; details: 2 h; dosed: Formamide; 30 mg/kg; iv; Female; F344; remark: listed apart in the source
Rat [29] = assay: concentration in plasma after dosing; details: dosed: Formamide, 600 mg/kg, oral, Female, Harlan Sprague Dawley
Rat [30] = assay: concentration in plasma after dosing; details: dosed: Formamide, 90 mg/kg, iv, Male, Harlan Sprague Dawley
Rat [31] = assay: concentration in plasma after dosing; details: dosed: Formamide, 600 mg/kg, oral, Female, Harlan Sprague Dawley; remark: listed apart in the source
Rat [32] = assay: concentration in plasma after dosing; details: dosed: Formamide, 300 mg/kg, oral, Female, F344
Rat [33] = assay: concentration in plasma after dosing; details: dosed: Formamide, 90 mg/kg, iv, Male, Harlan Sprague Dawley; remark: listed apart in the source
Rat [34] = assay: concentration in plasma after dosing; details: 2 h; dosed: Pyridine; 200 mg/kg; oral; Female; Harlan Sprague Dawley
Rat [35] = assay: concentration in plasma after dosing; details: dosed: Pyridine, 25 mg/kg, oral, Female, F344
Rat [36] = assay: concentration in plasma after dosing; details: 50 min; dosed: Pyridine; 10 mg/kg; iv; Male; Harlan Sprague Dawley
Rat [37] = assay: concentration in plasma after dosing; details: 2 h; dosed: Pyridine; 10 mg/kg; oral; Male; F344
Rat [38] = assay: concentration in plasma after dosing; details: dosed: Pyridine, 25 mg/kg, oral, Female, F344; remark: listed apart in the source

CC1CCCO1 (stereo not drawn) [2-Methyltetrahydrofuran]
Details | concentration in brain [µg/g] | concentration in plasma [ng/mL]
Rat [1] | 6.84 | –
Rat [2] | – | 1850
Rat [3] | – | 423
Rat [4] | 9.19 | –
Rat [5] | – | 13500
Rat [6] | 0.293 | –
Rat [7] | – | 13300
Rat [8] | – | 11200
Rat [9] | 19.7 | –
Rat [10] | – | 14400
Rat [11] | 135 | –
Rat [12] | – | 4110
Rat [13] | 5.5 | –
Rat [14] | – | 14000
Rat [15] | – | 46200
Rat [16] | 3.88 | –
Rat [17] | 5.42 | –
Rat [18] | 158 | –

O=C(O)C(Cl)Br (stereo not drawn) [Bromochloroacetic acid]
Details | concentration in plasma [ng/mL]
Rat [19] | 20500
Rat [20] | 133
Rat [21] | 9020
Rat [22] | 62200

Rat [23]
Details | concentration in plasma [ng/mL]
4 h | 2610
6 h | 590

OCCC(F)(F)C(F)(F)C(F)(F)C(F)(F)C(F)(F)C(F)(F)C(F)(F)C(F)(F)F [Fluorotelomer alcohol 8+2]
Details | concentration in plasma [ng/mL]
Rat [24] | 163

Rat [25]
Details | concentration in plasma [ng/mL]
3 h | 166
5 min | 1.67

NC=O [Formamide]
Details | concentration in plasma [ng/mL]
Rat [26], 8 h | 33900
Rat [26], 12 h | 25400
Rat [29], 0.25 h | 514000
Rat [29], 5 h | 744000
Rat [30], 8 h | 93300
Rat [30], 12 h | 88200
Rat [31], 1 h | 654000
Rat [31], 72 h | 28400
Rat [32], 10 min | 58600
Rat [32], 20 h | 164000
Rat [33], 8 h | 62800
Rat [33], 12 h | 54600

Details | concentration in plasma [ng/mL]
Rat [27] | 34600
Rat [28] | 41000

c1ccncc1 [Pyridine]
Details | concentration in plasma [ng/mL]
Rat [34] | 74100
Rat [36] | 4690
Rat [37] | 451

concentration in plasma [ng/mL]
Details | 0.5 h | 1 h | 6 h | 8 h
Rat [35] | 14700 | – | 16300 | –
Rat [38] | – | 19100 | – | 15700
